{"source": "PubChem BioAssay AID504332", "about": "(National Center for Advancing Translational Sciences (NCATS), 2011)", "note": "“And” between values parts separate entries of the source, which are not always exact repeats. Equal entries are not always repeated. Out of some 350,000 compounds screened, about 31,000 (8.9%) were called active. The inconclusive results got no clear call from the source; some entries with a clear call stand among them for comparison. Calls come from the whole dose curve; as a rule, active = well fitted inhibition curve with a large enough effect; inconclusive = small, poorly fitted or top-dose-only effect; inactive = no such curve, though single readings can be large or run the other way. A potency beside an inconclusive call is a rough fit, not a confirmed value. Where a structure was tested more than once in an assay, its records may differ in their call. % is set by controls: 0 for no effect and ±100 for the full control effect; potency is the fitted concentration of half-maximal effect; tags give direction and shape of the fitted curve."}
{"biological_target": "Histone-lysine N-methyltransferase EHMT2 (Homo sapiens) (UniProt Q96KQ7)", "sequence (Q96KQ7 whole entry, looked up)": "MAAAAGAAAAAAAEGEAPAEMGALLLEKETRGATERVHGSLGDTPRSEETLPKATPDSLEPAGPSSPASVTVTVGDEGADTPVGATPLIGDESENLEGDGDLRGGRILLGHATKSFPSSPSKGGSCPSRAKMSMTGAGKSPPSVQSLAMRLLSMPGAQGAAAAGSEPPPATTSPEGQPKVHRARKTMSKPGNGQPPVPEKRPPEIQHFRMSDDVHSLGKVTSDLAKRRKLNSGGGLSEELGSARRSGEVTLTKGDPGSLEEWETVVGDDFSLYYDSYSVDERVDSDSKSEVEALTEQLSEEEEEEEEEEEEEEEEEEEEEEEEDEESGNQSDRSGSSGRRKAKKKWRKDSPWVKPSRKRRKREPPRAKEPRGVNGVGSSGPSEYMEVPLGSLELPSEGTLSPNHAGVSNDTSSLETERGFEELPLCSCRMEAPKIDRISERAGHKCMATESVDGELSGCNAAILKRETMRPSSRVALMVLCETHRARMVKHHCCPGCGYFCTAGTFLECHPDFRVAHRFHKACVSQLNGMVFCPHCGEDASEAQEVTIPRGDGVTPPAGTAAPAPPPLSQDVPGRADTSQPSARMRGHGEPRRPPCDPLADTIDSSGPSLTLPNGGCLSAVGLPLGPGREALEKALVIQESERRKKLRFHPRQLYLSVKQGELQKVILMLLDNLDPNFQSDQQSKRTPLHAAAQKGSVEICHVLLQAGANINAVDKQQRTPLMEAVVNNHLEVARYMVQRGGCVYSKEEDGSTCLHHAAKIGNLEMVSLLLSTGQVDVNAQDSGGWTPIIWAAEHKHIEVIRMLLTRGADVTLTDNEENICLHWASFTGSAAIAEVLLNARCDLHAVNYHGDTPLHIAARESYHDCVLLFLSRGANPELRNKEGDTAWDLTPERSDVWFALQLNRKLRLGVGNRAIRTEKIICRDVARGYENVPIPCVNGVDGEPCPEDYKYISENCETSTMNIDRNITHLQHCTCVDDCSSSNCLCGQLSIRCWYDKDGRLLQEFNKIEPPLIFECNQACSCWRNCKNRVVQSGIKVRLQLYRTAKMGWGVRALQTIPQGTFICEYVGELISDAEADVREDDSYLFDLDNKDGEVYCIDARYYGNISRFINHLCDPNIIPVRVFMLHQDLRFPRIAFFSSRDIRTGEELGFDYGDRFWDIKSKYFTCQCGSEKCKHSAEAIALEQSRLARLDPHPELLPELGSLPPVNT", "assay": "qHTS Assay for Inhibitors of Histone Lysine Methyltransferase G9a; note: nearly all actives have a fitted effect of over 75% in size", "conditions": "G9a H3K9 monomethylation, AlphaScreen, 2 h; activity, negative = inhibition: at 59 µM (top of the series) unless noted", "outline": "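Quantitative HTS format: methyltransferase activity on a biotin-tagged H3K9 peptide is measured by AlphaScreen, using a rabbit anti-monomethyl-H3K9 antibody with streptavidin donor and anti-IgG acceptor beads. Final levels are 20 nM enzyme, 500 nM peptide, 20 uM SAM; 2 h RT.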"}
{"smiles": "Cn1cccc1C(=O)N1CCC2(CCN(C(=O)Nc3ccccc3)CC2)CC1", "activity, negative = inhibition": "inactive: 1.7% [at 12.7 µM]"}
{"smiles": "CC(c1ccco1)N(C(=O)CSc1ccc(Br)cc1)c1ccccn1", "note": "(stereo not given)", "Potency": "inconclusive: 50.1 µM [inhibitor, partial curve]"}
{"smiles": "COC(=O)C(Cc1ccc(O)cc1)NC(=O)c1ccccc1OC", "note": "(stereo not given)", "activity, negative = inhibition": "inactive: -35.8% [at 0.0925 µM]"}
{"smiles": "CC(C)(C)NC(=O)COc1ccc(CNCc2cccnc2)cc1", "activity, negative = inhibition": "inactive: -37.4% [at 102 µM]"}
{"smiles": "C=CCc1cccc(/C=N/NC(=O)CNc2ccccc2)c1O", "activity, negative = inhibition": "inactive: 31.3%"}
{"smiles": "CCOC(=O)c1noc2ncnc(Nc3cccc(OC)c3)c12", "activity, negative = inhibition": "inactive: 19.9%"}
{"smiles": "CCOC(=O)COc1ccc(F)cc1C(=O)c1ccn2nc(-c3ccc(Cl)cc3)cc2n1", "activity, negative = inhibition": "inactive: -0.178%"}
{"smiles": "COc1ccc(C)cc1N1CC(C(=O)Nc2ccccc2N2CCCCC2)CC1=O", "note": "(stereo not given)", "activity, negative = inhibition": "inactive: -6.3% [at 2.33 µM]"}
{"smiles": "COc1ccc(CCN2C(=O)c3[nH]nc(-c4ccccc4O)c3C2c2ccc(OC)c(OC)c2)cc1", "note": "(stereo not given)", "activity, negative = inhibition": "inactive: 9.18%"}
{"smiles": "Cc1ccc(N(CCC#N)C(=O)COC(=O)c2cc(C)oc2C)cc1", "activity, negative = inhibition": "inactive: 2.6% [at 2.33 µM]"}
{"smiles": "O=C(O)c1cc2nc(-c3ccccc3)cc(-c3ccccc3)n2n1", "Potency": "inconclusive: 79.4 µM [inhibitor, partial curve, poor fit]"}
{"smiles": "CSC1=NCCN1C(=O)COc1ccccc1", "Potency": "inconclusive: 39.8 µM [inhibitor, partial curve]"}
{"smiles": "Cc1ccc(S(=O)Cc2nc(-c3ccc(C(=O)NCc4cccc(C)c4)cc3)oc2C)cc1", "note": "(stereo not given)", "Potency": "inconclusive: 5.01 µM [inhibitor, full curve, poor fit]"}
{"smiles": "COc1ccc(-c2nc(C)sc2C)cc1", "Potency": "inconclusive: 39.8 µM [inhibitor, single point]"}
{"smiles": "O=C(c1cccc(C(=O)N2CCc3ccccc32)n1)N1CCc2ccccc21", "Potency": "inconclusive: 31.6 µM [inhibitor, full curve, poor fit]"}
{"smiles": "CN(C)S(=O)(=O)c1ccc2c(c1)/C(=C/c1cc3c([nH]1)CCCC3)C(=O)N2", "Potency": "inactive and active: 11.2 µM"}
{"smiles": "O=C(CCCSc1ccc(Cl)cc1)Nc1cc(S(=O)(=O)N2CCOCC2)ccc1O", "Potency": "inconclusive: 1.58 µM [inhibitor, partial curve, poor fit]"}
{"smiles": "CCc1ccc(CCC(=O)Nc2sc(C)c(C)c2C(=O)OC)o1", "activity, negative = inhibition": "inactive: -35.9%"}
{"smiles": "O=C(Cc1c[nH]c2ccccc12)NCc1ccco1", "Potency": "inconclusive: 44.7 µM [inhibitor, partial curve, poor fit]"}
{"smiles": "CC(C)(C)[C@H]1CCC(=O)N([C@H](CSc2ccccc2)Cc2ccccc2)CC1", "activity, negative = inhibition": "inactive: 50.4% [at 102 µM]"}
{"smiles": "COC(=O)C1CCN(C(c2ccc(OC)c(OC)c2)c2sc3nc(C)nn3c2O)CC1", "note": "(stereo not given)", "Potency": "inconclusive: 15.8 µM [inhibitor, partial curve, poor fit]"}
{"smiles": "CC(C)CN(C)Cc1c(C(=O)N2CCc3ccccc3C2)nc2ccc(Cl)cn12", "Potency": "inconclusive: 39.8 µM [inhibitor, single point]"}
{"smiles": "Cc1onc(-c2ccccc2Cl)c1C(=O)N1CCN(c2ccccc2)CC1", "Potency": "inconclusive: 44.7 µM [inhibitor, partial curve]"}
{"smiles": "Cc1nnc(C)n1/N=C/c1cc2ccccc2nc1Cl", "activity, negative = inhibition": "inactive: 4% [at 102 µM]"}
{"smiles": "COc1ccc(C(=O)N2c3cc4c(cc3C(C)=CC2(C)C)OCO4)cc1", "activity, negative = inhibition": "inconclusive: -98.4% [inhibitor]"}
{"smiles": "COc1ccc(OC)c(S(=O)(=O)n2c([N+](=O)[O-])cnc2C)c1", "Potency": "inconclusive: 89.1 µM [inhibitor, single point]"}
{"smiles": "CC(=O)N1CCN(c2cc3c(cc2F)c(=O)c(C(=O)O)cn3C2CC2)CC1", "Potency": "active: 50.1 µM"}
{"smiles": "S=C(Nc1ccc2c(c1)OCO2)Nc1ccccc1Cl", "Potency": "inconclusive: 50.1 µM [inhibitor, partial curve, poor fit]"}
{"smiles": "Cc1cccc(NC(=O)c2sc3nc4c(c(-c5ccco5)c3c2N)CCC4)c1", "Potency": "inconclusive: 50.1 µM [inhibitor, partial curve]"}
{"smiles": "CCOC(=O)C1=C(CS(=O)(=O)c2ccc(OC)c(Cl)c2)NC(=O)NC1c1cccc(OC)c1", "note": "(stereo not given)", "activity, negative = inhibition": "inactive: -8.67%"}
{"smiles": "COC(=O)CCCC1=CC2=C(c3ccccc3)C(=O)C(C)(OC(=O)C3CCCC3)C(=O)C2=CN1C1CCCCC1", "note": "(stereo not given)", "Potency": "inconclusive: 39.8 µM [inhibitor, single point]"}
{"smiles": "COc1cccc(NC(=O)CSc2nc(-c3ccccc3Cl)nc3c2Cc2c(CO)cnc(C)c2O3)c1", "activity, negative = inhibition": "inactive: -4.57%"}
{"smiles": "CCCn1c(SCC(=O)Nc2ccc(C(=O)Nc3ccccc3OC)cc2)n[nH]c1=O", "Potency": "inconclusive: 89.1 µM [inhibitor, partial curve, poor fit]"}
{"smiles": "CCN1C(=O)/C(=C\\c2nc3ccccc3c(=O)n2CC)c2ccccc21", "Potency": "active: 63.1 µM"}
{"smiles": "CC(C)(C)NC(=O)COc1ccc2oc3c(c2c1)CCCC3", "Potency": "inconclusive: 89.1 µM [inhibitor, single point]"}
{"smiles": "CCCCc1ccc(NC(=O)c2cnccn2)cc1", "activity, negative = inhibition": "inactive: 16.8%"}
{"smiles": "COc1ccc(C(=O)COC(=O)c2cc([N+](=O)[O-])ccc2N2CCOCC2)c(OC)c1", "Potency": "inconclusive: 15.8 µM [inhibitor, full curve]"}
{"smiles": "Cc1ccc(S(=O)(=O)Nc2ccc3c(c2)nc(CCN2CCN(c4ccccn4)CC2)n3C)cc1", "Potency": "inconclusive: 70.8 µM [inhibitor, single point]"}
{"smiles": "C#CCSc1nncn1C(=O)/C=C/c1ccccc1", "Potency": "inconclusive: 28.2 µM [inhibitor, single point]"}
{"smiles": "Cc1ccc(S(=O)(=O)CC(=O)N(CCCN2CCOCC2)c2nc3c(F)cccc3s2)cc1", "Potency": "inconclusive: 89.1 µM [inhibitor, single point]"}
{"smiles": "CCn1c(CNS(=O)(=O)c2ccc(Cl)cc2)n[nH]c1=S", "Potency": "active: 28.2 µM"}
{"smiles": "COC(=O)c1ccc(S(=O)(=O)N2CCN(C(c3ccccc3)c3ccccc3)CC2)n1C", "activity, negative = inhibition": "inactive: 7.09% [at 102 µM]"}
{"smiles": "COC(=O)c1ccc(Cl)cc1NC(=O)NCCc1c(C)nn(C)c1C", "activity, negative = inhibition": "inactive: 5.53%"}
{"smiles": "COc1cccc(C2CC(C(F)(F)F)n3ncc(C(=O)NCc4ccco4)c3N2)c1", "note": "(stereo not given)", "Potency": "inconclusive: 14.1 µM [inhibitor, partial curve]"}
{"smiles": "COc1ccccc1C(=O)N/C(=C/c1ccc(Br)cc1)C(=O)NCC(=O)O", "activity, negative = inhibition": "inactive: -40% [at 102 µM]"}
